Assay results from the supplement of paper PMC10320760.
This is a noisy data set.

B1: Ydj1; a variant is named by its letters at X, in order (parent)
chain: MVKETKFYDILGVPVTATDVEIKKAYRKCALKYHPDKNPSEEAAEKFKEASAAYEILSDPEKRDIYDQFGEDGLSGAGGAGGFPGGGFGFGDDIFSQFFGAGGAQRPRGPQRGKDIKHEISASLEELYKGRTAKLALNKQILCKECEGRGGKKGAVKKCTSCNGQGIKFVTRQMGPMIQRFQTECDVCHGTGDIIDPKDRCKSCNGKKVENERKILEVHVEPGMKDGQRIVFKGEADQAPDVIPGDVVFIVSERPHKSFKRDGDDLVYEAEIDLLTAIAGGEFALEHVSGDWLKVGIVPGEVIAPGMRKVIEGKGMPIPKYGGYGNLIIKFTIKFPENHFTSEENLKKLEEILPPRIVPAIPKKATVDECVLADFDPAKYNRTRASRGGANYDSDEEEQGGEGVQCXXX

Variants of: B1
Assay: enrichment factor, frequency at 37 °C / frequency at 25 °C (thermotolerance selection) (ratio); higher = more growth at 37 °C, higher likelihood of farnesylation
Conditions: with Saccharomyces cerevisiae ydj1Δ (yWS304); selective temperature 37 °C; reference temperature 25 °C
Experimental: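 Pooled library of all 8,000 Ydj1-CXXX C-terminal motif variants (native CASQ replaced by C + three variable residues, one codon per amino acid) expressed from a CEN plasmid in S. cerevisiae ydj1Δ (yWS304). The library was grown in SC-Ura liquid to A600 ~2 (~8 generations) at permissive 25 °C or selective 37 °C. Reads from 8 and 7 replicates were pooled and variants counted by NGS. Enrichment factor = frequency at 37 °C / frequency at 25 °C, with a +1 correction; it reports Ydj1-dependent thermotolerance, used as a read-out of farnesylation by yeast FTase.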

| Variant | enrichment factor |
| --- | --- |
| GMM | 1.49 |
| GMN | 1.81 |
| GMP | 0.0989 |
| GMT | 1.17 |
| GMS | 1.53 |
| GMV | 0.872 |
| GMW | 1.38 |
| GMR | 0.213 |
| GMQ | 1.62 |
| GML | 1.11 |
| GMY | 1.52 |
| CNA | 1.79 |
| CND | 0.346 |
| CNE | 0.405 |
| CNF | 0.202 |
| CNC | 0.467 |
| CNG | 1.52 |
| CMS | 0.901 |
| CML | 1.18 |
| CMN | 1.36 |
| CMM | 0.737 |
| CMV | 1.03 |
| CMW | 0.772 |
| CMR | 0.768 |

| Variant | enrichment factor |
| --- | --- |
| CMY | 1.35 |
| CMP | 1.02 |
| CMQ | 2.57 |
| CMT | 0.813 |
| WND | 0.485 |
| WNC | 0.181 |
| WNE | 1.58 |
| WNF | 0.633 |
| WNA | 1.46 |
| MMS | 1.74 |
| MMN | 1.97 |
| MMV | 1.59 |
| MMR | 0.221 |
| MML | 1.45 |
| MMP | 0.194 |
| MMW | 0.759 |
| MMM | 2.15 |
| MMY | 1.04 |
| MMT | 2.01 |
| MMQ | 1.71 |
| PMQ | 1.29 |
| PMN | 1.07 |
| PMT | 1.64 |
| PMM | 1.09 |

| Variant | enrichment factor |
| --- | --- |
| PMP | 0.16 |
| PMV | 1.05 |
| PMR | 0.263 |
| PMY | 0.913 |
| PMS | 1.77 |
| PMW | 1.02 |
| PML | 0.526 |
| ANE | 0.638 |
| ANG | 1.38 |
| ANA | 1.28 |
| ANF | 1.71 |
| AND | 0.538 |
| ANC | 1.31 |
| DMV | 1.41 |
| DMT | 1.57 |
| DMM | 1.6 |
| DMS | 2.66 |
| DMP | 0.148 |
| DMY | 2 |
| DMN | 1.91 |
| DMR | 0.148 |
| DMQ | 1.64 |
| DMW | 1.49 |
| QNG | 1.02 |

| Variant | enrichment factor |
| --- | --- |
| QND | 0.181 |
| QNA | 1.82 |
| QNE | 0.221 |
| QNF | 2.05 |
| QNC | 1.69 |
| RNA | 1.35 |
| RND | 0.932 |
| RNC | 1.28 |
| RNF | 2.42 |
| RNE | 0.486 |
| RNG | 1.6 |
| VNC | 1.34 |
| VNF | 1.52 |
| VNA | 1.96 |
| VND | 1.12 |
| VNE | 1.59 |
| AMP | 0.241 |
| AMV | 2.23 |
| AML | 1.16 |
| AMY | 1.96 |
| AMM | 1.77 |
| AMQ | 1.82 |
| AMS | 2.11 |
| AMR | 0.746 |

| Variant | enrichment factor |
| --- | --- |
| AMT | 1.31 |
| AMW | 0.938 |
| AMN | 1.8 |
| FND | 0.331 |
| FNC | 0.188 |
| FNE | 0.151 |
| FNF | 1.86 |
| FNA | 1.7 |
| FNG | 1.31 |
| HNA | 1.99 |
| HNF | 2.11 |
| HNE | 0.292 |
| HND | 0.366 |
| HNC | 2.26 |
| HNG | 1.12 |
| ENA | 1.52 |
| ENC | 1.53 |
| END | 0.228 |
| ENF | 1.78 |
| ENG | 0.595 |
| ENE | 0.251 |
| GNE | 0.269 |
| GNC | 1.3 |
| GNF | 0.903 |

| Variant | enrichment factor |
| --- | --- |
| GNA | 0.613 |
| GND | 0.228 |
| GNG | 0.211 |
| NML | 1.78 |
| NMM | 1.68 |
| NMT | 2.08 |
| NMR | 0.301 |
| NMS | 2.68 |
| NMQ | 2.1 |
| NMY | 2.38 |
| NMN | 1.55 |
| NMV | 1.56 |
| NMW | 1.95 |
| NMP | 0.115 |
| WMT | 2.14 |
| WMY | 1.36 |
| WMS | 1.85 |
| WML | 3.19 |
| WMP | 1.53 |
| WMQ | 3.03 |
| WMN | 2.08 |
| WMV | 1.51 |
| WMR | 0.141 |
| WMW | 0.923 |

| Variant | enrichment factor |
| --- | --- |
| WMM | 2.7 |
| LNG | 1.71 |
| LNA | 1.77 |
| LNC | 0.264 |
| LNE | 0.797 |
| LND | 0.896 |
| LNF | 1.67 |
| RMP | 0.12 |
| RMW | 0.579 |
| RMM | 0.862 |
| RMN | 1.26 |
| RMS | 1.98 |
| RMT | 2.46 |
| RML | 1.04 |
| RMR | 0.176 |
| RMV | 1.37 |
| RMQ | 2.96 |
| RMY | 1.51 |
| YND | 1.11 |
| YNA | 2.01 |
| YNE | 0.304 |
| YNC | 1.92 |
| YNF | 1.81 |
